# The list shows a part of the results.
# B1: Surfactant Protein D (Human); Neck + Carbohydrate Recognition Domain (NCRD) (Homo sapiens) (protein)
# chain: MLLFLLSALVLLTQPLGYLEAEMKTYSHRTMPSACTLVMCSSVESGLPGRDRDGREGPRGEKGDPGLPGAAGQAGMPGQAGPVGPKGDNGSVGEPGPKGDTGPSGPPGPPGVPGPAGREGALGKQGNIGPQGKPGPKGEAGPKGEVGAPGMQGSAGARGLAGPKGERGVPGERGVPGNTGAAGSAGAMGPQGSPGARGPPGLKGDKGIPGDKGAKGESGLPDVASLRQQVEALQGQVQHLQAAFSQYKKVELFPNGQSVGEKIFKTAQFVKPFTEAQLLCTQAGGQLASPRSAAENAALQQLVVAKNEAAFLSMTDSKTEGKFTYPTGESLVYSNWAPGEPNDDGGSEDCVEIFTNGKWNDRACGEKRLVVCEF
# Columns and labels:
# Assay in all cases: glycan array binding signal (z-score within array); higher = stronger binding
# Conditions in all cases: glycan notation: IUPAC condensed, linker removed
# [1] = molecular target: Fuc(a1-2)Gal
# Method in brief: (§1)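 The Consortium for Functional Glycomics database supplied 3228 glycan arrays, of which those lacking an available protein sequence were dropped. The binding signal, a within-array Z-score, was averaged across arrays of the same protein sequence and across linkers. Negative scores can be read as non-binding.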
# [2] = molecular target: Fuc(a1-2)Gal(b1-3)GalNAc
# Method in brief: as §1
# [3] = molecular target: Fuc(a1-2)Gal(b1-3)GalNAc(b1-3)Gal
# Method in brief: as §1
# [4] = molecular target: Fuc(a1-2)Gal(b1-3)GalNAc(b1-3)Gal(a1-4)Gal(b1-4)Glc
# Method in brief: as §1
# [5] = molecular target: Fuc(a1-2)Gal(b1-3)GalNAc(b1-4)[Neu5Ac(a2-3)]Gal(b1-4)Glc
# Method in brief: as §1
# [6] = molecular target: Fuc(a1-2)Gal(b1-3)GlcNAc
# Method in brief: as §1
# [7] = molecular target: Fuc(a1-2)Gal(b1-3)GlcNAc(b1-3)Gal(b1-4)Glc
# Method in brief: as §1
# [8] = molecular target: Fuc(a1-2)Gal(b1-3)[Fuc(a1-4)]GlcNAc
# Method in brief: as §1
# [9] = molecular target: Fuc(a1-2)Gal(b1-4)Glc
# Method in brief: as §1
# [10] = molecular target: Fuc(a1-2)Gal(b1-4)Glc6S
# Method in brief: as §1
# [11] = molecular target: Fuc(a1-2)Gal(b1-4)GlcNAc
# Method in brief: as §1
# [12] = molecular target: Fuc(a1-2)Gal(b1-4)GlcNAc(b1-3)Gal(b1-4)GlcNAc
# Method in brief: as §1
# [13] = molecular target: Fuc(a1-2)Gal(b1-4)GlcNAc(b1-3)Gal(b1-4)GlcNAc(b1-3)Gal(b1-4)GlcNAc
# Method in brief: as §1
# [14] = molecular target: Fuc(a1-2)Gal(b1-4)GlcNAc6S
# Method in brief: as §1
# [15] = molecular target: Fuc(a1-2)Gal(b1-4)[Fuc(a1-3)]GlcNAc
# Method in brief: as §1
# [16] = molecular target: Fuc(a1-2)Gal(b1-4)[Fuc(a1-3)]GlcNAc(b1-3)Gal(b1-4)[Fuc(a1-3)]GlcNAc
# Method in brief: as §1
# [17] = molecular target: Fuc(a1-2)Gal(b1-4)[Fuc(a1-3)]GlcNAc(b1-3)Gal(b1-4)[Fuc(a1-3)]GlcNAc(b1-3)Gal(b1-4)[Fuc(a1-3)]GlcNAc
# Method in brief: as §1
# [18] = molecular target: Fuc(a1-2)Gal6S(b1-4)Glc
# Method in brief: as §1
# [19] = molecular target: Fuc(a1-2)Gal6S(b1-4)Glc6S
# Method in brief: as §1
# [20] = molecular target: Fuc(a1-2)Gal6S(b1-4)GlcNAc
# Method in brief: as §1
# [21] = molecular target: Fuc(a1-2)[Gal(a1-3)]Gal
# Method in brief: as §1
# [22] = molecular target: Fuc(a1-2)[Gal(a1-3)]Gal(b1-3)GlcNAc
# Method in brief: as §1
# [23] = molecular target: Fuc(a1-2)[Gal(a1-3)]Gal(b1-4)Glc
# Method in brief: as §1
# [24] = molecular target: Fuc(a1-2)[Gal(a1-3)]Gal(b1-4)GlcNAc
# Method in brief: as §1
# [25] = molecular target: Fuc(a1-2)[Gal(a1-3)]Gal(b1-4)[Fuc(a1-3)]GlcNAc
# Method in brief: as §1
# [26] = molecular target: Fuc(a1-2)[Gal(a1-4)]Gal(b1-4)GlcNAc
# Method in brief: as §1
# [27] = molecular target: Fuc(a1-2)[GalNAc(a1-3)]Gal
# Method in brief: as §1
# [28] = molecular target: Fuc(a1-2)[GalNAc(a1-3)]Gal(b1-3)GlcNAc
# Method in brief: as §1
# [29] = molecular target: Fuc(a1-2)[GalNAc(a1-3)]Gal(b1-4)Glc
# Method in brief: as §1
# [30] = molecular target: Fuc(a1-2)[GalNAc(a1-3)]Gal(b1-4)GlcNAc
# Method in brief: as §1
# [31] = molecular target: Fuc(a1-2)[GalNAc(a1-3)]Gal(b1-4)[Fuc(a1-3)]GlcNAc
# Method in brief: as §1
# [32] = molecular target: Fuc(a1-2)[GalNAc(a1-4)]Gal(b1-4)GlcNAc
# Method in brief: as §1
# [33] = molecular target: Fuc(a1-2)[GalNAc(b1-3)]Gal
# Method in brief: as §1
# [34] = molecular target: Fuc(a1-3)GlcNAc
# Method in brief: as §1
# [35] = molecular target: Fuc(a1-3)[Gal(b1-4)]Glc6S
# Method in brief: as §1
# [36] = molecular target: Fuc(a1-3)[Gal(b1-4)]GlcNAc
# Method in brief: as §1
# [37] = molecular target: Fuc(a1-3)[Gal(b1-4)]GlcNAc(b1-2)Man(a1-3)[Fuc(a1-3)[Gal(b1-4)]GlcNAc(b1-2)Man(a1-6)]Man(b1-4)GlcNAc(b1-4)GlcNAc
# Method in brief: as §1
# [38] = molecular target: Fuc(a1-3)[Gal(b1-4)]GlcNAc(b1-2)Man(a1-6)[Gal(b1-4)GlcNAc(b1-2)Man(a1-3)]Man(b1-4)GlcNAc(b1-4)GlcNAc
# Method in brief: as §1
# [39] = molecular target: Fuc(a1-3)[Gal(b1-4)]GlcNAc(b1-3)Gal(b1-3)[Fuc(a1-4)]GlcNAc
# Method in brief: as §1
# [40] = molecular target: Fuc(a1-3)[Gal(b1-4)]GlcNAc(b1-4)Gal(b1-4)[Fuc(a1-3)]GlcNAc
# Method in brief: as §1
# [41] = molecular target: Fuc(a1-3)[Gal(b1-4)]GlcNAc(b1-4)Gal(b1-4)[Fuc(a1-3)]GlcNAc(b1-4)Gal(b1-4)[Fuc(a1-3)]GlcNAc
# Method in brief: as §1
# [42] = molecular target: Fuc(a1-3)[Gal(b1-4)]GlcNAc6S
# Method in brief: as §1
# [43] = molecular target: Fuc(a1-3)[Gal3S(b1-4)]Glc6S
# Method in brief: as §1
# [44] = molecular target: Fuc(a1-3)[Gal3S(b1-4)]GlcNAc
# Method in brief: as §1
# [45] = molecular target: Fuc(a1-3)[Gal3S(b1-4)]GlcNAc6S
# Method in brief: as §1
# [46] = molecular target: Fuc(a1-3)[GalNAc(b1-4)]GlcNAc
# Method in brief: as §1
# [47] = molecular target: Fuc(a1-4)GlcNAc
# Method in brief: as §1
# [48] = molecular target: Fuc(b1-3)GlcNAc
# Method in brief: as §1
# [49] = molecular target: Gal(a1-2)Gal
# Method in brief: as §1
# [50] = molecular target: Gal(a1-3)Gal
# Method in brief: as §1
# [51] = molecular target: Gal(a1-3)Gal(b1-3)GlcNAc
# Method in brief: as §1
# [52] = molecular target: Gal(a1-3)Gal(b1-4)Glc
# Method in brief: as §1
# [53] = molecular target: Gal(a1-3)Gal(b1-4)GlcNAc
# Method in brief: as §1
# [54] = molecular target: Gal(a1-3)Gal(b1-4)[Fuc(a1-3)]GlcNAc
# Method in brief: as §1
# [55] = molecular target: Gal(a1-3)GalNAc
# Method in brief: as §1
# [56] = molecular target: Gal(a1-3)[Gal(a1-4)]Gal(b1-4)GlcNAc
# Method in brief: as §1
# [57] = molecular target: Gal(a1-4)Gal(b1-4)Glc
# Method in brief: as §1
# [58] = molecular target: Gal(a1-4)Gal(b1-4)GlcNAc
# Method in brief: as §1
# [59] = molecular target: Gal(a1-4)GlcNAc
# Method in brief: as §1
# [60] = molecular target: Gal(a1-6)Glc
# Method in brief: as §1
binder,measurement,setting,value
B1,glycan array binding signal (z-score),[1],-0.24
same,glycan array binding signal (z-score),[2],-0.263
same,glycan array binding signal (z-score),[3],0.427
same,glycan array binding signal (z-score),[4],-0.283
same,glycan array binding signal (z-score),[5],-0.16
same,glycan array binding signal (z-score),[6],-0.162
same,glycan array binding signal (z-score),[7],-0.227
same,glycan array binding signal (z-score),[8],-0.286
same,glycan array binding signal (z-score),[9],-0.245
same,glycan array binding signal (z-score),[10],-0.191
same,glycan array binding signal (z-score),[11],-0.237
same,glycan array binding signal (z-score),[12],-0.234
same,glycan array binding signal (z-score),[13],-0.195
same,glycan array binding signal (z-score),[14],-0.171
same,glycan array binding signal (z-score),[15],-0.252
same,glycan array binding signal (z-score),[16],-0.256
same,glycan array binding signal (z-score),[17],-0.128
same,glycan array binding signal (z-score),[18],-0.237
same,glycan array binding signal (z-score),[19],-0.114
same,glycan array binding signal (z-score),[20],-0.266
same,glycan array binding signal (z-score),[21],-0.228
same,glycan array binding signal (z-score),[22],-0.277
same,glycan array binding signal (z-score),[23],-0.285
same,glycan array binding signal (z-score),[24],-0.235
same,glycan array binding signal (z-score),[25],-0.183
same,glycan array binding signal (z-score),[26],-0.272
same,glycan array binding signal (z-score),[27],-0.261
same,glycan array binding signal (z-score),[28],-0.247
same,glycan array binding signal (z-score),[29],-0.26
same,glycan array binding signal (z-score),[30],-0.276
same,glycan array binding signal (z-score),[31],-0.198
same,glycan array binding signal (z-score),[32],-0.202
same,glycan array binding signal (z-score),[33],-0.217
same,glycan array binding signal (z-score),[34],0.074
same,glycan array binding signal (z-score),[35],-0.196
same,glycan array binding signal (z-score),[36],-0.26
same,glycan array binding signal (z-score),[37],-0.211
same,glycan array binding signal (z-score),[38],-0.27
same,glycan array binding signal (z-score),[39],-0.257
same,glycan array binding signal (z-score),[40],-0.029
same,glycan array binding signal (z-score),[41],-0.273
same,glycan array binding signal (z-score),[42],-0.256
same,glycan array binding signal (z-score),[43],-0.17
same,glycan array binding signal (z-score),[44],-0.267
same,glycan array binding signal (z-score),[45],-0.123
same,glycan array binding signal (z-score),[46],-0.138
same,glycan array binding signal (z-score),[47],-0.052
same,glycan array binding signal (z-score),[48],-0.183
same,glycan array binding signal (z-score),[49],-0.19
same,glycan array binding signal (z-score),[50],-0.227
same,glycan array binding signal (z-score),[51],-0.269
same,glycan array binding signal (z-score),[52],-0.229
same,glycan array binding signal (z-score),[53],-0.263
same,glycan array binding signal (z-score),[54],-0.206
same,glycan array binding signal (z-score),[55],-0.186
same,glycan array binding signal (z-score),[56],-0.269
same,glycan array binding signal (z-score),[57],-0.004
same,glycan array binding signal (z-score),[58],-0.228
same,glycan array binding signal (z-score),[59],-0.21
same,glycan array binding signal (z-score),[60],-0.083

# From the supplement of paper PMC8728848
